The structures appear in SMILES notation. In all, about 48,000 compounds went through this assay and about 120 (0.25%) were called active. Not shown: some 4% with an inconclusive outcome. Calls come from the whole dose curve; as a rule, active = well fitted activation curve with a large enough effect; inconclusive = small, poorly fitted or top-dose-only effect, or another doubt; inactive = no such curve, though single readings can be large or run the other way. Some of the results follow.

The test is described as follows: Primary qHTS for Identification of Small Molecule Activators of Huntingtin-Antisense Promoter Activity. Note: nearly all actives have a fitted effect of over 55% in size. To be noted: HEK293 HTT-AS promoter firefly luciferase reporter (activity 0% = vehicle and -100% = no light), 24 h; series mostly up to 57.5 µM; activity change, positive = activation: at the top concentration. Summed up:
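Quantitative HTS used concentration series of up to 57.5 uM final on HEK293 luciferase reporter cells, 24 h at 37 degrees C. Readout was Dual-Glo firefly luminescence.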
For orientation: In qHTS, concentration-response curves come from the screen itself.
For the molecule `CCCCOC(=O)c1ccc(NC(=O)Cn2nnc3sc4c(c3c2=O)CCCC4)cc1`, the “activity change, positive = activation” value is inactive: -32.6%. In the case of `O=C(NCc1cccs1)c1ccc(Cn2c(SCc3cccc(F)c3)nc3cccnc32)cc1`, the “activity change, positive = activation” value is inactive: -33.9%. For the molecule `COc1ccccc1-c1nc2c(c(SCC(=O)Nc3c(C)cc(C)cc3C)n1)Cc1c(CO)cnc(C)c1O2`, the “activity change, positive = activation” value was inactive: -7.84%. In the case of `CCC(=O)N1CCc2cc(S(=O)(=O)CCC(=O)NCc3ccc(C)cc3)ccc21`, the “activity change, positive = activation” value was inactive: -11.1%. As to `CCOC(=O)c1c(NC(=O)c2cc3nc(-c4ccc(OC)cc4)cc(C(F)(F)F)n3n2)sc2c1CCC(C)C2` (configuration not stated), the “activity change, positive = activation” value was inactive: -3.71%. Regarding `CCc1cccc(NC(=O)C(Cc2ccccc2)NS(=O)(=O)c2ccc3c(c2)oc(=O)n3C)c1` (configuration not stated), the “activity change, positive = activation” value was inactive: -23.4%. Regarding `COc1ccc(N2CCN(C(CNC(=O)C(=O)NCCc3ccccc3)c3cccnc3)CC2)cc1` (configuration not stated), the “activity change, positive = activation” value is inactive: -32.9%.

As to `COc1ccc(C)cc1NC(=O)NCc1cccn1Cc1ccccc1`, the “activity change, positive = activation” value was inactive: -8.92%. As for `COc1ccccc1NC(=O)CN(C)S(=O)(=O)c1ccc2c(c1)c(=O)n(C)c(=O)n2C`, the “activity change, positive = activation” value was inactive: -13.3%. For `Cc1ccc(CN2CCC(CNC(=O)Nc3cccc(Cl)c3C)C2)cc1` (configuration not stated), the “activity change, positive = activation” value was inactive: -18.3%. With `Cc1ccc(CCNC(=O)NCc2noc3ccccc23)cc1`, the “activity change, positive = activation” value was inactive: -1.84%. As to `COc1ccc(C)cc1NC(=O)CSc1nc2ccccc2nc1N1CCOCC1`, the “activity change, positive = activation” value was inactive: -7.39%.

On to `CC1CCCN(S(=O)(=O)c2ccc3[nH]c(=O)cc(C(=O)NCCc4ccc(Cl)cc4)c3c2)C1` (configuration not stated), for which the “activity change, positive = activation” value was inactive: -9.89%. For the molecule `Cc1c(CNC2CCCCCC2)c(C(=O)O)c(C)n1Cc1ccc(F)cc1Cl`, the “activity change, positive = activation” value is inactive: -18.4%. The value for `CCOCCCN(C(=O)Nc1ccc(Cl)cc1)C1CCN(C(C)=O)CC1` was inactive: 7.77%; that for `O=C(COc1ccc(Cl)cc1)Nc1nnc2n1CCS2` was inactive: -4.99%. The value for `O=C1CN2Cc3c(ccc(Cl)c3Cl)N=C2N1` was inactive: -21.2%.

`CC(=O)N1CCc2cc(S(=O)(=O)NC(Cc3ccccc3)C(=O)Nc3cccc(C)c3)ccc21` (configuration not stated): the “activity change, positive = activation” value was inactive: -16.5%. Under `O=C(Cn1ncc2c([nH]c3ccccc32)c1=O)Nc1cccc(C(F)(F)F)c1` stands inactive: -13%.

`Oc1c(C(c2ccc(F)cc2)N2CCOCC2)sc2nc(-c3ccco3)nn12` (configuration not stated): the “activity change, positive = activation” value was inactive: -5.98%. As to `CCc1ccc(-n2c(=O)c3c4c(sc3n(Cc3ccc(C)cc3)c2=O)CCC4)cc1`, the “activity change, positive = activation” value was inactive: -16.6%.

`Cc1ccc(CNCc2ccccc2)s1`: the “activity change, positive = activation” value was inactive: -7.65%. Take `Cc1cc(C)cc(N2CC(c3nc(-c4cccc(Cl)c4)no3)CC2=O)c1` (configuration not stated): the “activity change, positive = activation” value is inactive: -14.7%. With `COc1ccc(CCNc2nccn(-c3ccc(C)c(C)c3)c2=O)cc1OC`, the “activity change, positive = activation” value is inactive: -30.4%.

On to `Cc1ccccc1CN1c2ccccc2S(=O)(=O)c2ccccc21`, for which the “activity change, positive = activation” value is inactive: -7.71%.

As to `O=C1C(Nc2ccccc2)=CC(c2ccc(Br)cc2)N1c1ccccc1` (configuration not stated), the “activity change, positive = activation” value is inactive: 19.3%. For `COc1ccc(N2CCN(S(=O)(=O)c3c(C)[nH]c(=O)[nH]c3=O)CC2)cc1`, the “activity change, positive = activation” value is inactive: -2.8%.

These data come from PubChem BioAssay AID1508624 (National Center for Advancing Translational Sciences (NCATS), 2021).
